T1: RBFOX1 RRM RbFoxmut (Fox-RRM*) (Homo sapiens, UniProt Q9NWB1 109-208, R118D;E147R;N151S;E152T)
T1 sequence: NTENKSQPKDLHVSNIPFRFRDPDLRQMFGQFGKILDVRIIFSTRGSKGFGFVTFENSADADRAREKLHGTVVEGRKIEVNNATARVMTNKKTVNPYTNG

B1: CAGUACC (DNA:RNA)
RNA: GGGAGACCGGAAUUCAGAUUGUCCCAGUACCUUAAAUCCCGUCGUAGCCACCA
DNA 1: CAATCTGAATTCCGGTCTCCC
DNA 2: TGGTGGCTACGACGGGATT
B2: CGCUUAU (DNA:RNA)
RNA: B1 RNA with A26G, G27C, A29U, C30A, C31U
DNA 1: CAATCTGAATTCCGGTCTCCC
DNA 2: TGGTGGCTACGACGGGATT
B3: GAAGUAA (DNA:RNA)
RNA: B1 RNA with C25G, G27A, U28G, A29U, C30A, C31A
DNA 1: CAATCTGAATTCCGGTCTCCC
DNA 2: TGGTGGCTACGACGGGATT
B4: AGCACCC (DNA:RNA)
RNA: B1 RNA with C25A, A26G, G27C, U28A, A29C
DNA 1: CAATCTGAATTCCGGTCTCCC
DNA 2: TGGTGGCTACGACGGGATT
B5: CCCACCG (DNA:RNA)
RNA: B1 RNA with A26C, G27C, U28A, A29C, C31G
DNA 1: CAATCTGAATTCCGGTCTCCC
DNA 2: TGGTGGCTACGACGGGATT
B6: CGCCAUA (DNA:RNA)
RNA: B1 RNA with A26G, G27C, U28C, C30U, C31A
DNA 1: CAATCTGAATTCCGGTCTCCC
DNA 2: TGGTGGCTACGACGGGATT
B7: AUGGUUA (DNA:RNA)
RNA: B1 RNA with C25A, A26U, U28G, A29U, C30U, C31A
DNA 1: CAATCTGAATTCCGGTCTCCC
DNA 2: TGGTGGCTACGACGGGATT
B8: AGCACUG (DNA:RNA)
RNA: GGGAGACCGGAAUUCAGAUUGUCCAGCACUGUUAAAUCCCGUCGUAGCCACCA
DNA 1: CAATCTGAATTCCGGTCTCCC
DNA 2: TGGTGGCTACGACGGGATT
B9: CUUGGCC (DNA:RNA)
RNA: B1 RNA with A26U, G27U, U28G, A29G
DNA 1: CAATCTGAATTCCGGTCTCCC
DNA 2: TGGTGGCTACGACGGGATT
B10: UGAUGGA (DNA:RNA)
RNA: B8 RNA with A25U, C27A, A28U, C29G, U30G, G31A
DNA 1: CAATCTGAATTCCGGTCTCCC
DNA 2: TGGTGGCTACGACGGGATT
B11: UUUCACC (DNA:RNA)
RNA: B1 RNA with C25U, A26U, G27U, U28C
DNA 1: CAATCTGAATTCCGGTCTCCC
DNA 2: TGGTGGCTACGACGGGATT
B12: AAACUUU (DNA:RNA)
RNA: B8 RNA with G26A, C27A, A28C, C29U, G31U
DNA 1: CAATCTGAATTCCGGTCTCCC
DNA 2: TGGTGGCTACGACGGGATT
B13: GCCCGGG (DNA:RNA)
RNA: B8 RNA with A25G, G26C, A28C, C29G, U30G
DNA 1: CAATCTGAATTCCGGTCTCCC
DNA 2: TGGTGGCTACGACGGGATT
B14: UUUGGAA (DNA:RNA)
RNA: GGGAGACCGGAAUUCAGAUUGUCCUUUGGAAUUAAAUCCCGUCGUAGCCACCA
DNA 1: CAATCTGAATTCCGGTCTCCC
DNA 2: TGGTGGCTACGACGGGATT
B15: AGUCAUA (DNA:RNA)
RNA: B8 RNA with C27U, A28C, C29A, G31A
DNA 1: CAATCTGAATTCCGGTCTCCC
DNA 2: TGGTGGCTACGACGGGATT
B16: AGAUUUA (DNA:RNA)
RNA: B8 RNA with C27A, A28U, C29U, G31A
DNA 1: CAATCTGAATTCCGGTCTCCC
DNA 2: TGGTGGCTACGACGGGATT
B17: CAUUGUC (DNA:RNA)
RNA: B1 RNA with G27U, A29G, C30U
DNA 1: CAATCTGAATTCCGGTCTCCC
DNA 2: TGGTGGCTACGACGGGATT
B18: CUAUACA (DNA:RNA)
RNA: B1 RNA with A26U, G27A, C31A
DNA 1: CAATCTGAATTCCGGTCTCCC
DNA 2: TGGTGGCTACGACGGGATT
B19: AGGCGAC (DNA:RNA)
RNA: B8 RNA with C27G, A28C, C29G, U30A, G31C
DNA 1: CAATCTGAATTCCGGTCTCCC
DNA 2: TGGTGGCTACGACGGGATT
B20: CGUUCAG (DNA:RNA)
RNA: B8 RNA with A25C, C27U, A28U, U30A
DNA 1: CAATCTGAATTCCGGTCTCCC
DNA 2: TGGTGGCTACGACGGGATT
B21: CCUUGCA (DNA:RNA)
RNA: B1 RNA with A26C, G27U, A29G, C31A
DNA 1: CAATCTGAATTCCGGTCTCCC
DNA 2: TGGTGGCTACGACGGGATT
B22: ACCAGGA (DNA:RNA)
RNA: B8 RNA with G26C, C29G, U30G, G31A
DNA 1: CAATCTGAATTCCGGTCTCCC
DNA 2: TGGTGGCTACGACGGGATT
B23: UACGUUA (DNA:RNA)
RNA: B14 RNA with U26A, U27C, G29U, A30U
DNA 1: CAATCTGAATTCCGGTCTCCC
DNA 2: TGGTGGCTACGACGGGATT
B24: CCAGAGU (DNA:RNA)
RNA: B1 RNA with A26C, G27A, U28G, C30G, C31U
DNA 1: CAATCTGAATTCCGGTCTCCC
DNA 2: TGGTGGCTACGACGGGATT
B25: GGCUCCG (DNA:RNA)
RNA: B8 RNA with A25G, A28U, U30C
DNA 1: CAATCTGAATTCCGGTCTCCC
DNA 2: TGGTGGCTACGACGGGATT
B26: AGGGCUU (DNA:RNA)
RNA: B8 RNA with C27G, A28G, G31U
DNA 1: CAATCTGAATTCCGGTCTCCC
DNA 2: TGGTGGCTACGACGGGATT
B27: AGAAGGC (DNA:RNA)
RNA: B8 RNA with C27A, C29G, U30G, G31C
DNA 1: CAATCTGAATTCCGGTCTCCC
DNA 2: TGGTGGCTACGACGGGATT
B28: ACUUUCG (DNA:RNA)
RNA: B8 RNA with G26C, C27U, A28U, C29U, U30C
DNA 1: CAATCTGAATTCCGGTCTCCC
DNA 2: TGGTGGCTACGACGGGATT
B29: UACGAAC (DNA:RNA)
RNA: B1 RNA with C25U, G27C, U28G, C30A
DNA 1: CAATCTGAATTCCGGTCTCCC
DNA 2: TGGTGGCTACGACGGGATT
B30: AAAACAC (DNA:RNA)
RNA: B8 RNA with G26A, C27A, U30A, G31C
DNA 1: CAATCTGAATTCCGGTCTCCC
DNA 2: TGGTGGCTACGACGGGATT
B31: AGCCGUG (DNA:RNA)
RNA: B8 RNA with A28C, C29G
DNA 1: CAATCTGAATTCCGGTCTCCC
DNA 2: TGGTGGCTACGACGGGATT

Where a chain is given by its changes, count along the chain named. This is one part of the list.

The experiment has as its target T1, RBFOX1 RRM RbFoxmut (Fox-RRM*). Nature of the experiment: EMSA; HiTS-Eq, 1 nM pool, 10 min; buffer printed only for the single-RNA assays: 10 mM Tris pH 7.5, 150 mM NaCl, 3.4 mM EDTA, 0.001% NP-40, 30 C. Particulars: tags: His6 N-terminal (pET28a); label: 5' 32P. In a few lines: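 Relative association constants, normalised to the cognate motif, were derived by comparing read counts of each RNA species with those of the control reaction. The RNA sequenced was the free fraction, separated by 8% native PAGE after a 10 min equilibration in 50 µL of 1 nM 5′-radiolabelled RNA (7 randomized nucleotides) with increasing concentrations of purified wild-type or mutant RbFox RRM.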
For orientation: A gel shift assay detects complexes by their altered migration in electrophoresis.
In the case of B1, the binding signal was 0.107 KA relative to UGCAUGU.
Regarding B2, the binding signal is 0.11 KA relative to UGCAUGU.
In the case of B3 it was 0.113 KA relative to UGCAUGU.
B4: the binding signal was 0.0582 KA relative to UGCAUGU.
As to B5, the binding signal is 0.101 KA relative to UGCAUGU.
For B6, the binding signal is 0.118 KA relative to UGCAUGU.
Consider B7, for which the binding signal is 0.191 KA relative to UGCAUGU.
With B8, the binding signal is 0.102 KA relative to UGCAUGU.
For B9, the binding signal is 0.343 KA relative to UGCAUGU.
As for B10, the binding signal is 0.0611 KA relative to UGCAUGU.
In the case of B11 it was 0.0683 KA relative to UGCAUGU.
For the molecule B12, the binding signal is 0.0636 KA relative to UGCAUGU.
The figure for B13 is 0.0708 KA relative to UGCAUGU.
With B14, the binding signal was 0.0908 KA relative to UGCAUGU.
Consider B15, for which the binding signal was 0.0919 KA relative to UGCAUGU.
B16: the binding signal is 0.121 KA relative to UGCAUGU.
The figure for B17 is 0.277 KA relative to UGCAUGU; for B18 it is 0.0637 KA relative to UGCAUGU.
Take B19: the binding signal was 0.0736 KA relative to UGCAUGU.
Regarding B20, the binding signal was 0.0939 KA relative to UGCAUGU.
In the case of B21 it was 0.238 KA relative to UGCAUGU; in that of B22, 0.0755 KA relative to UGCAUGU.
B23: the binding signal was 0.131 KA relative to UGCAUGU.
For B24, the binding signal is 0.126 KA relative to UGCAUGU.
In the case of B25, the binding signal is 0.116 KA relative to UGCAUGU.
In the case of B26 it was 0.0737 KA relative to UGCAUGU; in that of B27, 0.0762 KA relative to UGCAUGU.
As for B28, the binding signal is 0.0835 KA relative to UGCAUGU.
With B29, the binding signal was 0.0628 KA relative to UGCAUGU.
Consider B30, for which the binding signal is 0.0821 KA relative to UGCAUGU.
The figure for B31 is 0.109 KA relative to UGCAUGU.

Source of the values: article PMC9911399, “Two distinct binding modes provide the RNA-binding protein RbFox with extraordinary sequence specificity”.
